This note sets out measurements from paper PMC4336329 (PLoS ONE, 2015).

Molecules are shown by their SMILES. About 14,000 (4.5%) of roughly 310,000 compounds showed an effect of 50% or more. The effect is printed as a negative number. This is one part of the list.
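Further: peak tail current of the secondary pulse compared with the same well before compound.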

For the assay, the target named is human ether-à-go-go-related gene (hERG) potassium channel (human, UniProt Q12809). Put plainly: primary screen, population patch clamp on CHO cells stably expressing hERG.
Sequence of human ether-à-go-go-related gene (hERG) potassium channel (Q12809 whole entry, looked up): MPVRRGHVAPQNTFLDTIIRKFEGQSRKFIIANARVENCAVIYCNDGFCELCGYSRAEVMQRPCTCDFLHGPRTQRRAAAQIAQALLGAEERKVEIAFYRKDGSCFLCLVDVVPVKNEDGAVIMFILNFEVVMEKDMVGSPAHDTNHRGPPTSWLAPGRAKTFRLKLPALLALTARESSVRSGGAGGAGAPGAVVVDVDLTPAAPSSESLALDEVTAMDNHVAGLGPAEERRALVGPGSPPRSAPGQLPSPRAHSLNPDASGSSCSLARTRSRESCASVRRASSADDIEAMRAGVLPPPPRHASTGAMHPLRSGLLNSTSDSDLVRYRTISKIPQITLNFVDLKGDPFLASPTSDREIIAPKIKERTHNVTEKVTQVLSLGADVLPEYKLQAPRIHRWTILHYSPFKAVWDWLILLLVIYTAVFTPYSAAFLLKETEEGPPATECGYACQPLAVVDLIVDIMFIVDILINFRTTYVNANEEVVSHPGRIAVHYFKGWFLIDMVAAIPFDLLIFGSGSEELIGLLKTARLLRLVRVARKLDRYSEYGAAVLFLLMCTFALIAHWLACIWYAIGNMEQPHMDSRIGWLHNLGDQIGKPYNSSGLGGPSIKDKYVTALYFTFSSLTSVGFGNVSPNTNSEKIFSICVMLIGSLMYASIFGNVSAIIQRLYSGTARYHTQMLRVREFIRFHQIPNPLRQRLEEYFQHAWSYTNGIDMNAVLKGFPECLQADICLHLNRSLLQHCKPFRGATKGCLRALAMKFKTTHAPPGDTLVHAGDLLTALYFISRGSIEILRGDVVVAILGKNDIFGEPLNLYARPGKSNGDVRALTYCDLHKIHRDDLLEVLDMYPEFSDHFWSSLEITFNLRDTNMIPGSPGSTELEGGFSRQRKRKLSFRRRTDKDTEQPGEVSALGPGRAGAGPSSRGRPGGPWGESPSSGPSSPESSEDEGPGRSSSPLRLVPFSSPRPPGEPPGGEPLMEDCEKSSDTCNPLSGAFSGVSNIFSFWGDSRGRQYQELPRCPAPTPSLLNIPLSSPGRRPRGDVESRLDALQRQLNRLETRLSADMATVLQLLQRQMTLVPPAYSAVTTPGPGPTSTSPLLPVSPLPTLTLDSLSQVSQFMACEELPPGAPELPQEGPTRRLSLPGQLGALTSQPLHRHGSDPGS
Consider `Cc1ccc(S(=O)(=O)N2CCN(S(=O)(=O)N3CCC(C)CC3)CC2)cc1C`, for which the “hERG current change (%, negative = inhibition) at 10uM” value turned out to be 12.9%.
On to `CCCOc1ccc(C(=O)NNC(=O)c2cccc(S(=O)(=O)N3CCN(C(C)=O)CC3)c2)cc1OC`, for which the “hERG current change (%, negative = inhibition) at 10uM” value is on record as -13.8%.
Consider `CC(C)C(=O)Nc1ccc2c3c(cccc13)CC2`, for which the “hERG current change (%, negative = inhibition) at 10uM” value is reported as -16.1%.
On to `CCCCC1N2CC3([N+](=O)[O-])CN1CC([N+](=O)[O-])(C2)C3(C)C` (centres unmarked), for which the “hERG current change (%, negative = inhibition) at 10uM” value is on record as -2.92%.
Turning to `Cc1ccccc1NC(=O)Nc1nc2ccc(S(C)(=O)=O)cc2s1`, the “hERG current change (%, negative = inhibition) at 10uM” value is reported as -2.53%.
On to `COc1cc(NC(=O)COC(=O)CC(NC(C)=O)c2ccccc2)cc(OC)c1` (centres unmarked), for which the “hERG current change (%, negative = inhibition) at 10uM” value stood at 4.45%.
As for `Cc1ccccc1-n1ncc(C(C)NS(=O)(=O)c2ccccc2Cl)c1C` (centres unmarked), the “hERG current change (%, negative = inhibition) at 10uM” value was 12.8%.
On to `N#Cc1c(-c2ccco2)cc(C2CC2)nc1SCC(=O)c1ccccc1`, for which the “hERG current change (%, negative = inhibition) at 10uM” value came to 17.4%.
In the case of `CCCCCCCNC(=O)C1(CC2CC(c3ccc(Cl)cc3)=NO2)CCN(C(=O)CCCCCBr)CC1` (centres unmarked), the “hERG current change (%, negative = inhibition) at 10uM” value is -79%.
Turning to `Cc1nnc(NC(=O)CSc2nnc(C)n2Cc2ccccc2)s1`, the “hERG current change (%, negative = inhibition) at 10uM” value amounted to 17.7%.
With `Cc1c(C(=O)O)sc2[nH]c(=O)n(Cc3ccccc3)c(=O)c12`, the “hERG current change (%, negative = inhibition) at 10uM” value worked out at 24.6%.
In the case of `CCCCn1c(N)c(N(CCOC)C(=O)c2cccc(N3C(=O)c4ccccc4C3=O)c2)c(=O)[nH]c1=O` it was 20.8%; in that of `CC(O)CNc1ccc(-c2n[nH]c(=O)c3ccccc23)cc1[N+](=O)[O-]` (centres unmarked), 8.45%; in that of `CCc1cccc(C)c1Nc1nc2ccccc2n2cnnc12`, -13.7%.
`COc1ccc(NC(=O)Cc2cccs2)c(OC)c1`: the “hERG current change (%, negative = inhibition) at 10uM” value was -0.294%.
In the case of `CN(C(=O)COC(=O)CSc1cc(Cl)ccc1Cl)c1c(N)n(Cc2ccccc2)c(=O)[nH]c1=O` it was -0.021%; in that of `COc1ccc2[nH]c3c(c2c1)CCNC3C1CC=C(C)CC1.Cl` (centres unmarked), -22.2%.
With `CC(=O)c1sc(-c2ccccc2)cc1NS(=O)(=O)c1ccc(C)cc1` the figure was 1.88%; with `Cc1ccc(-n2nc(C(=O)NN)c(C)c(C#N)c2=O)cc1Cl`, 14.5%.
With `Cc1ccc(Oc2ncccc2NC(=O)CC(CC(=O)O)c2ccccc2)c2c1CCC2` (centres unmarked) the figure was -3.27%; with `COc1ccc(N/C=C/C(=O)C(C)(C)C)cc1`, 1.29%.
Consider `O=C(c1ccc2c(c1)OCO2)N1CCC2(CC1)Oc1ccc(F)cc1C(=O)C21CC(c2cccnc2)=NO1` (centres unmarked), for which the “hERG current change (%, negative = inhibition) at 10uM” value is -17.9%.
For `Cc1ccnc2nc(C(=O)OCC(=O)NC(=O)NCc3ccco3)nn12`, the “hERG current change (%, negative = inhibition) at 10uM” value came to 17.1%.
Turning to `CCOc1ccc([C@@H]2CC=C(C(=O)O)[C@H](c3ccc(Cl)cc3)N2S(=O)(=O)c2ccc(C)cc2)cc1`, the “hERG current change (%, negative = inhibition) at 10uM” value is recorded as -4.99%.
For `Cc1cnc(CN(C)C(=O)C2CCC(=O)N(CCc3ccccc3)C2)[nH]1` (centres unmarked), the “hERG current change (%, negative = inhibition) at 10uM” value worked out at 17.1%.
As to `Cc1nn(C)c(C)c1NS(=O)(=O)c1ccc(Cl)cc1`, the “hERG current change (%, negative = inhibition) at 10uM” value amounted to 4.66%.
In the case of `Cc1cccc(-c2c3c(=O)n(C)c(=O)n(C)c3cn2C2CCCCC2)c1` it was 14.8%; in that of `CC(=O)Nc1ccc(N(CC(=O)NC2CCCCC2)C(=O)Cn2nnc(-c3ccccc3)n2)cc1`, 6.79%; in that of `Cc1ccc(Nc2c(N)c(=O)oc3ccccc23)cc1`, -17.2%.
Take `O=C(O)c1ccccc1C(=O)NC1CCCCNC1=O` (centres unmarked): the “hERG current change (%, negative = inhibition) at 10uM” value came to 9.01%.
As for `CC(CCc1ccccc1)NC(=O)C1CCN(c2nnc(-n3cccc3)s2)CC1` (centres unmarked), the “hERG current change (%, negative = inhibition) at 10uM” value is on record as -13.2%.
For the compound `CCOC(=O)C1=C(C)NC2=C(C(=O)CC(C)(C)C2)C1c1coc2ccccc2c1=O` (centres unmarked), the “hERG current change (%, negative = inhibition) at 10uM” value came to 5.08%.
Regarding `O=C(NCC1CCCO1)C1CCCN1C(=O)Nc1ccc(Cl)c(Cl)c1` (centres unmarked), the “hERG current change (%, negative = inhibition) at 10uM” value stood at 12%.
In the case of `CCOc1ccccc1NC(=O)Nc1ccccn1` it was -7.36%; in that of `COc1cccc(CNC(=O)N2CCN(S(=O)(=O)c3ccc(C)cc3)CC2)c1`, 16.3%; in that of `C[C@@H]1CCC(=O)N(CC[C@H](Sc2ccc(Br)cc2)c2ccccc2)CC1`, 5.94%.
On to `NC(=O)C1(N2CCCCC2)CCN(C(=O)CSc2nc3ccccc3s2)CC1`, for which the “hERG current change (%, negative = inhibition) at 10uM” value is given as -33.7%.
With `Cc1ccc(OCC(=O)N2CCN(S(=O)(=O)c3ccc(Cl)cc3)CC2)c([N+](=O)[O-])n1` the figure was -48.8%; with `O=c1oc2ccccc2c(Nc2ccccc2O)c1[N+](=O)[O-]`, 1.12%.
Consider `S=C(NCCc1ccccc1)N/N=C/c1c(Cl)cccc1Cl`, for which the “hERG current change (%, negative = inhibition) at 10uM” value is -4.01%.
On to `C=CCn1c(C)nc2c(sc3nc4c(cc32)COC(C)(C)C4)c1=O`, for which the “hERG current change (%, negative = inhibition) at 10uM” value turned out to be 7.28%.
In the case of `COc1cccc(-n2c(SCC(N)=O)nc3c([nH]c4ccccc43)c2=O)c1` it was -0.054%; in that of `CC(=O)c1cccc(NC(=O)N(c2ccccc2)c2ccccc2)c1`, -6.48%.
With `CCC(C)NC(=O)CN(c1cc(Cl)cc(Cl)c1)S(C)(=O)=O` (centres unmarked), the “hERG current change (%, negative = inhibition) at 10uM” value was 5.04%.
With `O=[N+]([O-])c1ccc2[nH]c(O)c(N=NC3CS(=O)(=O)CC3O)c2c1` (centres unmarked) the figure was 12.5%; with `CCN(CC)C(c1ccc(C)cc1)c1nnnn1C1CCCCC1.Cl` (centres unmarked), -4.52%; with `CCCn1cc(NC(=O)C2CC(c3cccc(Br)c3)=NO2)cn1` (centres unmarked), -38.2%.
Consider `COc1ccc(NC(=O)Cn2c3ccc(OC)cc3c3nc4n(c(=O)c32)CCS4)cc1`, for which the “hERG current change (%, negative = inhibition) at 10uM” value stood at 6.12%.
Turning to `COC(=O)C(NNc1ccccc1)(NC(=O)c1ccc(F)cc1)C(F)(F)F` (centres unmarked), the “hERG current change (%, negative = inhibition) at 10uM” value is recorded as -2.1%.
Consider `CC(Oc1ccccc1Cl)C(=O)Nc1ccc(S(=O)(=O)N2CCCC2)cc1` (centres unmarked), for which the “hERG current change (%, negative = inhibition) at 10uM” value is -17.1%.
On to `CC(C)c1ccc(NC(=O)Cn2ncn3c(cc4ccccc43)c2=O)cc1`, for which the “hERG current change (%, negative = inhibition) at 10uM” value was found to be 5.06%.
Regarding `Cc1oc(-c2ccc(F)cc2)nc1CN(Cc1ccccn1)CC1CCCO1` (centres unmarked), the “hERG current change (%, negative = inhibition) at 10uM” value was -19.8%.
As for `COC(=O)CCC(=O)OC1(C)C(=O)C=C2C=C(C3CC3)N(c3ccccc3)C=C2C1=O` (centres unmarked), the “hERG current change (%, negative = inhibition) at 10uM” value is recorded as -6.94%.
